Results: PubChem BioAssay AID1030 (National Center for Advancing Translational Sciences (NCATS), 2008)
In all, about 220,000 compounds went through this assay and about 16,000 (7.3%) were called active. This list was built around the results that the source calls inconclusive (neither active nor inactive); the mix of calls is not that of the screen. Calls follow the shape of the dose curve; as a rule, active = well fitted inhibition curve with a large enough effect (not every such curve was filed as active); inconclusive = small, poorly fitted or top-dose-only effect, or another doubt; inactive = no such curve, though single readings can be large or run the other way. Potencies of inconclusive entries are left out as doubtful fits.

What follows are compounds tested against Aldehyde dehydrogenase 1A1 (Homo sapiens) (UniProt P00352) (assay: qHTS Assay for Inhibitors of Aldehyde Dehydrogenase 1 (ALDH1A1)). Settings: Purified ALDH1A1, NADH fluorescence, propionaldehyde substrate; series mostly up to 75.3 µM.
UniProt P00352, sequence (P00352 whole entry, looked up): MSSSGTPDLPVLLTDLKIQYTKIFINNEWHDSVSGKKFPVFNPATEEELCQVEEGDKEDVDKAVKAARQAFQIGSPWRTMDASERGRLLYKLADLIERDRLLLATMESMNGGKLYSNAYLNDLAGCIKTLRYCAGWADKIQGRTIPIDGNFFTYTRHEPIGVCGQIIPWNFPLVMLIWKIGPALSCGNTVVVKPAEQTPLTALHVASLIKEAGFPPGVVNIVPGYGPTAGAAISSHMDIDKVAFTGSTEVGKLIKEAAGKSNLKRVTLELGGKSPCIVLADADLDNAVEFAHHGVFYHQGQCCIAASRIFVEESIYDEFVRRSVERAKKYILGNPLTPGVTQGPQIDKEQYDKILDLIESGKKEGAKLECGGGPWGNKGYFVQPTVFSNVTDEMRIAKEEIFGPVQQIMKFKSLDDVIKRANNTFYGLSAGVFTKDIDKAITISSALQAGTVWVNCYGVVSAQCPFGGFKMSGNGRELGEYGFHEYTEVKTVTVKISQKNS
Potency is read from the fitted curve at half-maximal effect; tags tell the direction and shape of the fitted curve.

Structure (SMILES) | Potency
COc1ccc(CCCC(=O)NC2CCCCC2)cc1 | inactive
C=CCOC(=O)C(=O)/C=C/c1ccc2c(c1)Cc1ccccc1-2 | inactive
CCN(CC)c1ccc2ccc(=O)oc2c1 | inconclusive [inhibitor, partial curve]
CCN(CC)C(=O)CC(c1ccc(F)cc1)c1ccco1 (stereo not drawn) | inconclusive [inhibitor, single point]
O=C(CSc1nnc(COc2ccccc2)n1Cc1ccco1)NCc1ccco1 | inconclusive [inhibitor, single point]
CCN(CC(=O)Nc1ccc([N+](=O)[O-])cc1OC)c1ccccc1 | inconclusive [inhibitor, single point]
c1ccc(CSc2nnc(-c3sccc3-n3cccc3)o2)cc1 | inconclusive [inhibitor, single point]
COc1ccc(OC)c(Nc2cc(-c3ccccc3)nc(N)n2)c1 | inactive
Cc1c(-c2ccc(F)cc2)[n+](=O)c2c(n1[O-])CCCCC2 | inactive
O=c1c2cc(Br)ccc2[nH]c(=S)n1Cc1ccccn1 | inconclusive [inhibitor, partial curve]
S=C(NCCN1CCOCC1)Nc1ccc(-c2nc3ccccc3[nH]2)cc1 | inconclusive [inhibitor, single point]
O=C(N1CCOCC1)N(Cc1ccco1)CC1CCCO1 (stereo not drawn) | inconclusive [inhibitor, single point]
COc1c(N)c2ccccc2[nH]c1=O | inconclusive [inhibitor, single point]
Cc1nnsc1Sc1ccccc1C(=O)O | inactive
COc1cccc2c(=O)n(CC(=O)N3CCc4ccccc43)ccc12 | inconclusive [inhibitor, single point]
O=C(O)c1cccc(CSc2nnc(COc3ccccc3)o2)c1 | inconclusive [inhibitor, single point]
CN(C)C(=O)Nc1ccccc1CC[N+](=O)[O-] | inconclusive [inhibitor, single point]
O=C(NC(=S)N1CCN(c2ccccn2)CC1)c1ccco1 | active: 11.2 µM
COc1cccc(OCc2nc3c4cnn(-c5ccccc5)c4ncn3n2)c1 | inconclusive [inhibitor, single point]
C=CCn1c(CCNC(=O)c2cccs2)nnc1SCC(=O)Nc1cccc(Cl)c1C | active: 10 µM
CC1=C(C(=O)OCc2ccccc2)C(c2ccc(-c3ccccc3)cc2)NC(=O)N1CCCCCC(=O)O (stereo not drawn) | inactive
O=c1c2ccccc2c(-c2ccccc2)nn1-c1ccc(Cl)c(Cl)c1 | inconclusive [inhibitor, single point]
COc1ccc(Oc2ncc3nc(-c4cccc(C#N)c4)c(=O)n(Cc4cccc(OC)c4)c3n2)cc1 | inactive

Structure (SMILES) | Potency
O=C(O)/C=C/C(=O)Nc1ccccc1C(=O)OCC(=O)c1ccc2c(c1)OCCO2 | inconclusive [inhibitor, single point]
Cc1cc(N)c2ccccc2[n+]1CCCCCCCCCC[n+]1c(C)cc(N)c2ccccc21 | inactive
COC(=O)N/N=C/c1ccc(-c2cc(Cl)cc(Cl)c2)o1 | inactive
CCN(CC(=O)NCc1ccc(Cl)cc1)C(=O)/C=C/c1ccco1 | inconclusive [inhibitor, single point]
CCN(CC)c1ccc2cc(C=O)c(=O)oc2c1 | inconclusive [inhibitor, partial curve]
CCOCCCNC(=O)/C(C#N)=C/c1ccccc1F | inconclusive [inhibitor, single point]
COc1ccc(-c2nc(-c3ccccc3)nc(Cl)c2C#N)cc1 | inconclusive [inhibitor, single point]
CCCCNc1nc(-c2ccccc2)c(C(=O)OCC)cc1C#N | inconclusive [inhibitor, partial curve, poor fit]
Cc1cc(/C=N/NC(=O)c2ccccn2)c(C)n1-c1cccc([N+](=O)[O-])c1 | inconclusive [inhibitor, single point]
CCOC(=O)N1CCC(NC(=O)c2cc3c(-c4ccc(OC)c(OC)c4)nn(C)c3s2)CC1 | inconclusive [inhibitor, partial curve]
CCc1cccc2c(C(=O)CSc3nncn3-c3ccc(OC)cc3)c[nH]c12 | inactive
COc1ccc(-c2noc(CCC(=O)NCC3CCN(Cc4cccc(C)c4)CC3)n2)cc1 | inactive
COc1ccc(C(C)=O)cc1CN1C(=O)NC2(CCCCC2)C1=O | inconclusive [inhibitor, single point]
O=C(C[n+]1cnn(CC(=O)c2ccc(Cl)cc2Cl)c1)c1ccc([N+](=O)[O-])cc1 | active: 20 µM
Cc1cccc(-c2nsc(SCC(=O)Nc3nccs3)n2)c1 | inconclusive [inhibitor, single point]
CC(=O)OCC1O[C@@H](O[C@@H]2C[C@H]3C(C)(C)[C@H](OC(C)=O)CC[C@]3(C)[C@H]3CC[C@]45C[C@]4(CC[C@H]5[C@@H](C)C[C@@H](O)[C@H](O)C(C)(C)O)[C@@]32C)[C@H](O)[C@@H](O)[C@@H]1O (stereo partly drawn) | inactive
CC1(OC(=O)CCc2ccccc2)C(=O)C=C2C=C(c3ccc(C#N)cc3)N(CCN3CCOCC3)C=C2C1=O (stereo not drawn) | inconclusive [inhibitor, single point]
CC(C)OC(=O)Nc1ccc2c(c1)N(C(=O)CCN1CCOCC1)c1ccccc1CC2 | inactive
COc1ccc(OC)c(-c2cc(C(=O)Nc3c(C)nn(Cc4ccccc4Cl)c3C)no2)c1 | inconclusive [inhibitor, single point]
COc1ccccc1NC(=O)COC(=O)c1ccc([N+](=O)[O-])s1 | active: 10 µM
CN=C(Cc1ccccc1)C1=C(O)CC(C)(C)CC1=O | inconclusive [inhibitor, single point]
CCOC(=O)C1=C(C)N=c2s/c(=C\c3ccncc3)c(=O)n2C1c1ccc2c(c1)OCO2 (stereo not drawn) | inconclusive [inhibitor, partial curve]
CN(CC(=O)O/N=C(\N)c1ccccn1)S(=O)(=O)c1cc(Cl)ccc1Cl | inconclusive [inhibitor, partial curve]

Structure (SMILES) | Potency
CCOc1ccc(C2C(C#N)=C(N)Oc3cc(C)oc(=O)c32)cc1 (stereo not drawn) | active: 8.91 µM
COc1ccc2c(c1)c(C(O)CN1CCN(Cc3ccc4c(c3)OCO4)CC1)c(C)n2C (stereo not drawn) | inconclusive [inhibitor, single point]
CC(C)(C)C(=O)c1sc2nc(-c3cccs3)cc(C(F)(F)F)c2c1N | inconclusive [inhibitor, partial curve]
COc1ccc2cc3cc(C(=O)NCCCN4CCOCC4)oc3nc2c1 | inconclusive [inhibitor, partial curve]
O=C1NCCCc2c1oc1ccc(O)cc21 | active: 8.91 µM
COc1ccc2nc(SCC(=O)Nc3ccc4c(c3)OCCO4)[nH]c2c1 | inconclusive [inhibitor, partial curve]
CN(Cc1cn(C)nc1-c1ccc(Oc2ccccc2)cc1)Cc1cnc2ccccn12 | inconclusive [inhibitor, single point]
Cc1ccc(S(=O)(=O)N2CCN(C(=O)CSc3nnc(C)s3)C2)cc1 | inconclusive [inhibitor, single point]
O=C(CCCN1C(=O)c2cccc3cccc(c23)C1=O)N1CCN(c2ccc(F)cc2)CC1 | inconclusive [inhibitor, partial curve]
CCN(CC)S(=O)(=O)c1ccc(C(=O)Nc2ccc(Cc3ccncc3)cc2)cc1 | inconclusive [inhibitor, partial curve]
CCN(CC)C(=O)C1CCC(CNS(=O)(=O)c2cccc3cccnc23)CC1 (stereo not drawn) | inconclusive [inhibitor, partial curve]
CC1CCC2C(=O)N(c3cccc(OS(=O)(=O)c4ccccc4)c3)C(=O)C2C1 (stereo not drawn) | active: 12.6 µM
CCOC(=O)/C(C#N)=C/c1cc2ccccc2nc1N1CCOCC1 | active: 25.1 µM
Cn1c(/C(C#N)=C2/CCCCCN2)nc2ccccc21 | active: 17.8 µM
Cc1ccc(NC(=S)Nc2cc(-c3ccccc3)[nH]n2)cc1Cl | inconclusive [inhibitor, single point]
CCOC(=O)C1Cc2cc3c(cc2C1=O)CC(C(=O)OCC)C3=O (stereo not drawn) | inconclusive [inhibitor, single point]
Cn1c(N2CCN(c3ccccn3)CC2)nc2c1c(=O)n(Cc1ccc(Cl)cc1)c(=O)n2C | inconclusive [inhibitor, single point]
Cc1ccc(CN2C(=O)c3ccccc3NC23CCN(Cc2ccccc2)CC3)cc1 | inconclusive [inhibitor, partial curve]
CCC(C)C(=O)N1CCc2cc(-c3csc(N)n3)ccc21 (stereo not drawn) | inconclusive [inhibitor, single point]
O=c1cc(N2CCc3ccccc32)[nH]c(=O)n1-c1ccc(Br)cc1 | inconclusive [inhibitor, partial curve]
CCOc1cc(/C=N/NC(=O)CNc2ccc(C)cc2)ccc1OC(=O)c1ccccc1 | inconclusive [inhibitor, single point]
CCOC(=O)C1=C(O)/C(=C\c2cc(C)n(-c3ccccc3F)c2C)N=C1C | inconclusive [inhibitor, partial curve]
